# According to paper PMC4336329 (PLoS ONE, 2015):
# The campaign covered roughly 310,000 compounds. About 2,200 (0.71%) showed an effect of 50% or more. Effects have a minus sign here. The list shows a part of the results.
# Target: human ether-à-go-go-related gene (hERG) potassium channel (human, UniProt Q12809)
# Test: primary screen, population patch clamp on CHO cells stably expressing hERG
# human ether-à-go-go-related gene (hERG) potassium channel, sequence (Q12809 whole entry, looked up): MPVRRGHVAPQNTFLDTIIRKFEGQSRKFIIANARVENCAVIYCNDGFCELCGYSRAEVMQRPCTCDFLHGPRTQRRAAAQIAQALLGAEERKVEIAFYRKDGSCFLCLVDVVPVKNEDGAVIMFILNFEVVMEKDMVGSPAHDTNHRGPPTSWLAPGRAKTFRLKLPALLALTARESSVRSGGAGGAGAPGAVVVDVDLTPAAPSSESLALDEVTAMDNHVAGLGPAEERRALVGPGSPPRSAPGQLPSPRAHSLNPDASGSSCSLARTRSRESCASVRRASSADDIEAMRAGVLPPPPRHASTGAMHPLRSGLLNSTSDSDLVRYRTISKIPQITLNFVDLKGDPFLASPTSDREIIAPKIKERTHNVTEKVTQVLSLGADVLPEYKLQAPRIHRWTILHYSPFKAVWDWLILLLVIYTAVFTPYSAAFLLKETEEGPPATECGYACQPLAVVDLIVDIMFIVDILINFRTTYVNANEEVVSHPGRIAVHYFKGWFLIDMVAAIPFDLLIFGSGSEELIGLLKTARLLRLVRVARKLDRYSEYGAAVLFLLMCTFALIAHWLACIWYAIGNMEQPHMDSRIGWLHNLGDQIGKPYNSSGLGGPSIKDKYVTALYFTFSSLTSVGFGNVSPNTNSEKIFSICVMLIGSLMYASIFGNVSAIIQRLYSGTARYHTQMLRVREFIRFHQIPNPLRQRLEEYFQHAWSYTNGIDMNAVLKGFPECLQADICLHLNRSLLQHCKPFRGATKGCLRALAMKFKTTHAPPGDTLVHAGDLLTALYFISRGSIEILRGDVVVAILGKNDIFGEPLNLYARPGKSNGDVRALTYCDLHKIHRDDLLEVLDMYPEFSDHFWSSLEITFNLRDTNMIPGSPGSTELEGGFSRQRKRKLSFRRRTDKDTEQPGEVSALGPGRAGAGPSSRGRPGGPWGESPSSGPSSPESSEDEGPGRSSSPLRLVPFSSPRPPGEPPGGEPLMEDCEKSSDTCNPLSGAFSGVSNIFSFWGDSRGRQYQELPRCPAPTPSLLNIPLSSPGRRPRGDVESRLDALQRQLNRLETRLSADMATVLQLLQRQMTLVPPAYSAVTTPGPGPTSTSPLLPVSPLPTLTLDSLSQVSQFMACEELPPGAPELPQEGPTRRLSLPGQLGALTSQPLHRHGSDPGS
row,Compound,"hERG current change (%, negative = inhibition) at 1uM"
1,CN(C)C(=O)c1ccc(NC(=O)COC(=O)c2cc(S(=O)(=O)N(C)C)ccc2N2CCCC2)cc1,-9.76%
2,COc1cccc(NC(=O)CN(Cc2ccccc2)S(C)(=O)=O)c1,8.68%
3,COC(=O)c1ccc(CSc2nnc(CNC(=O)c3ccc(OC)cc3)o2)o1,16.3%
4,CCOC(=O)c1c2n(c3ccc(O)cc13)CCCCC2,8.66%
5,CCOC(=O)C1CCN(C(=O)c2ccc(S(=O)(=O)Nc3ccccc3OC)cc2)CC1,0.429%
6,COc1ccc(C(=O)/C=C/c2cn(CC(O)CN3CCOCC3)c3ccccc23)cc1 (centres unmarked),11.1%
7,Cc1ccc(OCC(=O)N/N=C\c2cn(Cc3ccccc3)c3ccccc23)cc1C,7.2%
8,COc1ccc([C@H]2CC(=O)C=C(/C=C/c3ccc(C(F)(F)F)cc3)C2)cc1,-14.1%
9,COc1ccc(CN(C(=O)c2cccs2)c2nccs2)cc1OC,12.2%
10,COc1ccccc1CN(C)C(=O)c1ccccc1SCC(=O)N1CCCC1,20.5%
11,Cc1cccc(CNS(=O)(=O)c2ccc(-c3ccc(=O)[nH]n3)s2)c1,10.9%
12,COCCN1CCCC(CNCc2cn(C)nc2-c2ccc(Oc3ccccc3)cc2)C1 (centres unmarked),8.37%
13,CCOC(=O)CSc1nnc(CSc2nc3ccccc3c(=O)[nH]2)n1-c1ccccc1,10.6%
14,CCC(C)c1ccccc1N1CC(C(=O)Nc2cc(S(=O)(=O)N3CCOCC3)ccc2OC)CC1=O (centres unmarked),8.44%
15,CCCOC(=O)c1ccc(NC(=O)c2cccc(S(=O)(=O)N3CCN(C(C)=O)CC3)c2)cc1,8.61%
16,Cc1ccc(S(=O)(=O)n2cnc3ccccc32)cc1,8.03%
17,CCOC(=O)Cc1csc(SCC(=O)Nc2cc(Cl)ccc2Oc2ccccc2)n1,3.7%
18,COc1ccc(NC(=O)C23CC4CC(C2)CC(n2cnc(Br)n2)(C4)C3)c(OC)c1,-5.91%
19,O=[N+]([O-])c1ccccc1CNC(Cc1ccccc1)c1ccccc1 (centres unmarked),3.06%
20,Cc1cccc(Cn2ccc(N)n2)c1,15.1%
21,CCn1c(=O)n(CC)c2cc(N3CCCC3)c(NC(=O)c3cccc(OC)c3)cc21,9.95%
22,Cc1ccc(-c2nnn(CC(=O)N(CC(=O)NC(C)C)c3cnc4ccccc4c3)n2)o1,15.9%
23,CCc1ccc2[nH]c3nc(SCC(=O)NNC(=O)c4ccc(C(C)(C)C)cc4)nnc3c2c1,-2.05%
24,O=C(Nc1ccc(Cc2ccc(NC(=O)N3CCOCC3)cc2)cc1)N1CCOCC1,9.32%
25,CN(C)S(=O)(=O)c1ccc(C(=O)NCC(=O)N/N=C/c2ccccc2Cl)cc1,4.1%
26,CC1CCC(NC(=O)CCNS(=O)(=O)c2ccc3c(c2)CCC(=O)N3)CC1 (centres unmarked),7.82%
27,Cl.O=C(O)C1=CCCN(CCON=C(c2ccccc2)c2ccccc2)C1,5.52%

row,Compound,"hERG current change (%, negative = inhibition) at 1uM"
1,COc1cc(OC)cc(C(=O)NCCNC(=O)c2ccccn2)c1,11.8%
2,CCCn1c(SCC(=O)N2CCCCC2)nnc1C(C)C,5.95%
3,CCN(CC)S(=O)(=O)c1cccc(NC(=O)/C=C/c2ccc([N+](=O)[O-])cc2)c1,6.71%
4,COc1ccc2nc(NCCO)[nH]c2c1,12.6%
5,CC(C)=CCc1c(C)nc2ccccc2c1C(=O)O,13.1%
6,CC1(C)CC(=O)C2=C(C1)OC(N)=C([N+](=O)[O-])C2c1ccc(F)cc1 (centres unmarked),13.6%
7,CCCn1c(=O)c(C(=O)NNC(=O)c2ccc(Cl)cc2Cl)c(O)c2ccccc21,1.62%
8,CC(C)(C)c1cc[n+](-c2[nH]c(=O)sc2/C=N/NC(=O)c2ccccc2[O-])cc1,16.7%
9,OC[C@H]1O[C@@H](Oc2ccc3cc(Br)ccc3c2)[C@H](O)[C@@H](O)[C@H]1O,4.75%
10,O=C(CCCC(=O)c1ccccc1)Nc1ccc(F)cc1,11.3%
11,Cc1cccc2cc(CN(Cc3ccc(F)cc3)C(=O)C(F)(F)F)c3nnnn3c12,30.5%
12,CCc1cccc(CC)c1NC(=O)C[n+]1cccc(C(N)=O)c1.[Cl-],8.4%
13,O=C1Nc2ccccc2C12OCCCO2,3.36%
14,Cc1ccc(CNC(=O)CCNC(=O)Cn2ccc3ccccc3c2=O)cc1,9.08%
15,Clc1ccc(NCc2cccnc2)c(Cl)c1,13.5%
16,COc1ccc(CNC(=O)C(C#N)c2nc3ccccc3nc2N2CCN(C)CC2)cc1 (centres unmarked),-8.5%
17,CC(C)OCCCNC(=O)COCC(=O)Nc1ccc(OCCc2ccccc2)cc1,7.35%
18,O=C(COC(=O)c1c(Cl)ccc(Cl)c1Cl)NC(=O)NCc1ccccc1,12.7%
19,COc1ccc(-c2nnn(CC(=O)N3CCOCC3)n2)cc1,6.27%
20,COc1cccc(NC(=S)NC(=O)c2cccnc2)c1,13.7%
21,Cc1ccc(N2C(=O)CC(C)(C)CC2=O)cc1Cl,14%
22,COc1ccc(OC)c(CN2CCN(C(=O)c3ccc(S(=O)(=O)Nc4ccccc4F)cc3)CC2)c1,6.91%
23,COc1ccc(-c2cc(C(=O)N3CCN(c4ccccc4)CC3)c3ccccc3n2)cc1OC,4.27%
24,O=C(Nc1ccncc1)c1ccc(Cl)c([N+](=O)[O-])c1,2.42%
25,COc1ccc(C2C(C#N)=C(C)NC3=C2C(=O)CC(C)(C)C3)cc1 (centres unmarked),2.72%
26,CCCCCC(=O)Nc1cccc(C2=NOC3(C2)C[C@@H](C(N)=O)N(C(=O)c2cc([N+](=O)[O-])cc([N+](=O)[O-])c2C)C3)c1 (some centres unmarked),6.48%
